The record followed here is paper PMC4336329 (PLoS ONE, 2015).

In all, about 310,000 compounds went through this assay and about 14,000 (4.5%) showed an effect of 50% or more. Effects have a minus sign here. This is one part of the list.
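Also: peak tail current of the secondary pulse compared with the same well before compound.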

The target of this assay is human ether-à-go-go-related gene (hERG) potassium channel (human, UniProt Q12809). Kind of assay: primary screen, population patch clamp on CHO cells stably expressing hERG.
Chain of human ether-à-go-go-related gene (hERG) potassium channel (Q12809 whole entry, looked up): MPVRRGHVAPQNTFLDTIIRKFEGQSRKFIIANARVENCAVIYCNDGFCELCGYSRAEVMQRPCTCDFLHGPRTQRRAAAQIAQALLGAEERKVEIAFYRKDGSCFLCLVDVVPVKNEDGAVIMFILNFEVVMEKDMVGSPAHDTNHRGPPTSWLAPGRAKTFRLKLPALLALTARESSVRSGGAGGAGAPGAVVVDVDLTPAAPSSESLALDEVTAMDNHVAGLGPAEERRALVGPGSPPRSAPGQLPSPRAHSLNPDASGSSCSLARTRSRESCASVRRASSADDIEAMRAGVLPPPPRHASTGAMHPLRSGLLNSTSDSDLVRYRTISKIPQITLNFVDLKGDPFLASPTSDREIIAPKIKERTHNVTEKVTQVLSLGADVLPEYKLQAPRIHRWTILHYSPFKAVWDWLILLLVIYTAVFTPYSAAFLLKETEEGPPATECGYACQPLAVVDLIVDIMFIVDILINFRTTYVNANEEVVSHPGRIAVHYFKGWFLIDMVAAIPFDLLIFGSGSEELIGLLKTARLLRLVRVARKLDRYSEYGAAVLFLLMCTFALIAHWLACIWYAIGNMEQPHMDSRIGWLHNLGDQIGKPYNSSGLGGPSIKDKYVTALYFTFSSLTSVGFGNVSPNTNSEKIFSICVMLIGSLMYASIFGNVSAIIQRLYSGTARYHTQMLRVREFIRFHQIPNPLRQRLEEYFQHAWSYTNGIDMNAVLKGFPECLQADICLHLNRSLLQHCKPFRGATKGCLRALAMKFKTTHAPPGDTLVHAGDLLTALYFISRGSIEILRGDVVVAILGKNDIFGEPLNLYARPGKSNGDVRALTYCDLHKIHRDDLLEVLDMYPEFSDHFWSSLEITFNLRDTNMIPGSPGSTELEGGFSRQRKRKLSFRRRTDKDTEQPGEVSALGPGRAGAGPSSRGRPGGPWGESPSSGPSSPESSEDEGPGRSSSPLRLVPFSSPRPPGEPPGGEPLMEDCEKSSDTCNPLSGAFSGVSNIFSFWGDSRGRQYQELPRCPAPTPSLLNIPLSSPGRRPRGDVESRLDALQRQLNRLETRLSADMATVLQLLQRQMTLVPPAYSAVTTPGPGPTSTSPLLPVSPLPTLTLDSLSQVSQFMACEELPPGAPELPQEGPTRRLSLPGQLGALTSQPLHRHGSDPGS
For `COc1ccc(C(C(=O)NCc2ccccc2)N(Cc2cccs2)C(=O)c2cnccn2)cc1` (centres unmarked), the “hERG current change (%, negative = inhibition) at 10uM” value was -12.2%.
With `Cc1cc(OCC(=O)NN2C(=O)c3ccccc3C2=O)ccc1Cl`, the “hERG current change (%, negative = inhibition) at 10uM” value amounted to 7.86%.
As for `CCc1noc(C)c1C(=O)N1CCN(S(=O)(=O)c2cc(C)ccc2C)CC1`, the figure is -1.66%.
Take `Cn1cc(Br)c(-c2cccc(NC(=O)CC(C)(C)CC(=O)O)c2)n1`: the “hERG current change (%, negative = inhibition) at 10uM” value amounted to 11.8%.
As for `O=C(NCc1ccc(F)cc1)Nc1ccc(Cl)cc1`, the “hERG current change (%, negative = inhibition) at 10uM” value was determined as 15.1%.
Take `S=C(NCCc1c[nH]c2ccccc12)NC1CCCC1`: the “hERG current change (%, negative = inhibition) at 10uM” value is recorded as 9.06%.
Consider `Cc1cc(C)c(Cn2c(C(=O)O)c(C=O)c3ccccc32)c(C)c1`, for which the “hERG current change (%, negative = inhibition) at 10uM” value is reported as 1.4%.
For the compound `Cc1cccc(-c2nc3ccccc3c(=O)n2NC(=S)N(C)C)c1`, the “hERG current change (%, negative = inhibition) at 10uM” value is recorded as -7.76%.
On to `COc1cc(SC)ccc1C(=O)N1CCN(c2ccc(O)cc2)CC1`, for which the “hERG current change (%, negative = inhibition) at 10uM” value is reported as -34.2%.
Turning to `Cc1noc(C)c1S(=O)(=O)N(CC(=O)N1CCc2ccccc21)c1ccc(C(C)C)cc1`, the “hERG current change (%, negative = inhibition) at 10uM” value came out at 14.2%.
`COc1ccc(-c2cc(CCCC(=O)NCCc3ccc(OC)cc3OC)no2)cc1`: the “hERG current change (%, negative = inhibition) at 10uM” value is listed as 5.37%.
Take `CC(=O)c1cc2c(=O)c3ccccc3oc2nc1C`: the “hERG current change (%, negative = inhibition) at 10uM” value is 1.37%.
Next, `Cc1cc(=O)oc2cc(O)c(N=Nc3ccccc3)cc12`: 9.68%.
As for `CCNC(=O)/C(=C/c1ccc2c(c1)OCO2)NC(=O)c1ccc(Br)cc1`, the figure is -58.3%; as for `Cc1nc2ccccc2n1/N=C/c1cccnc1`, -7.62%; as for `CC1=Nc2ccc3ccccc3c2C1(C)C`, 11.4%.
For `O=C(CN1C(=O)NC2(CCCC2)C1=O)Nc1ccc(F)c([N+](=O)[O-])c1`, the “hERG current change (%, negative = inhibition) at 10uM” value is recorded as -0.524%.
For `CCOC(=O)c1[nH]c(C)c(C(=O)N2CCN(c3ccccc3OC)CC2)c1C`, the “hERG current change (%, negative = inhibition) at 10uM” value stood at 10.6%.
With `COc1ccccc1N1CCN(C(=O)c2ccc(Cn3c(=S)[nH]c4cc5c(cc4c3=O)OCO5)cc2)CC1`, the “hERG current change (%, negative = inhibition) at 10uM” value turned out to be 21.3%.
In the case of `CCN1CCN(c2ccc(NC(=O)c3cccc(OCc4ccccc4)c3)cc2)CC1`, the “hERG current change (%, negative = inhibition) at 10uM” value is recorded as -13.3%.
As to `CC(C)OC(=O)/C(=C\C=C\c1ccccc1)NC(=O)c1ccccc1`, the “hERG current change (%, negative = inhibition) at 10uM” value is listed as 1.57%.
Consider `S=C(N/N=C1\C2CN3CCN(C2)CC1(c1ccccc1)C3)Nc1ccccc1`, for which the “hERG current change (%, negative = inhibition) at 10uM” value was -12.7%.
Regarding `CCOC(=O)c1cc(-c2nnc(-c3ccc(Cl)cc3)o2)c(C)nc1C`, the “hERG current change (%, negative = inhibition) at 10uM” value is given as 3.64%.
Regarding `CCCC(C(=O)Nc1ccc(S(=O)(=O)Nc2ncccn2)cc1)c1ccccc1` (centres unmarked), the “hERG current change (%, negative = inhibition) at 10uM” value is recorded as 12.7%.
For the compound `O=C(NCC(c1ccco1)N1CCOCC1)c1cccc([N+](=O)[O-])c1` (centres unmarked), the “hERG current change (%, negative = inhibition) at 10uM” value is recorded as 12.7%.
On to `COc1cc(/C=C(\C#N)c2ccccn2)ccc1OCc1ccccc1`, for which the “hERG current change (%, negative = inhibition) at 10uM” value was -40.8%.
Next, `c1ccc(-c2ccc3c(c2)NCCN3)cc1`: 9.52%; `CCCC1C(C#N)=C(N)Oc2cc(C)n(C)c(=O)c21` (centres unmarked): 9.2%; `CC(C)(C)c1ccc(OCC(=O)NNC(=O)CCc2ccccc2)cc1`: -4.88%.
Take `CCOC(=O)C(=CNc1cc(C)ccn1)C(=O)OCC`: the “hERG current change (%, negative = inhibition) at 10uM” value was -3.79%.
As to `COc1ccc(-c2c3c(nc4sc(C(=O)Nc5ccccc5)c(N)c24)CCC3)cc1`, the “hERG current change (%, negative = inhibition) at 10uM” value was 0.447%.
For the compound `COc1ccc(O)c(CN2CCC(n3nccc3NC(=O)C3CCCC3)CC2)c1`, the “hERG current change (%, negative = inhibition) at 10uM” value is recorded as -50.8%.
Turning to `CCn1c(CC(=O)Nc2cccc(OC)c2)nnc1SCC(=O)Nc1nccs1`, the “hERG current change (%, negative = inhibition) at 10uM” value is given as -2.39%.
Next, `COc1ccc(CCNC(=O)c2ccc(N(C)S(=O)(=O)c3ccc(C)cc3)cc2)cc1OC`: -3.57%; `CSc1nsc(SCC(=O)Nc2nc3ccccc3s2)n1`: 9.66%.
As for `CCn1c(NC(=O)Nc2cccc(C)c2C)cc2sccc21`, the figure is 24.2%.
Consider `CN(CC(=O)Nc1ccccc1Cl)C(=O)COC(=O)c1nc(Cl)c(Cl)c(Cl)c1Cl`, for which the “hERG current change (%, negative = inhibition) at 10uM” value is reported as -4.91%.
In the case of `NC(=O)c1ccc(Cn2c(C(=O)c3ccc(Cl)cc3)c3ccccc3[n+]2[O-])cc1`, the “hERG current change (%, negative = inhibition) at 10uM” value is given as -9.74%.
As for `CCCCNC(=O)Nc1cc(C(F)(F)F)c[nH]c1=O`, the figure is -0.183%; as for `COc1ccc(-c2nnc(NC(=O)c3ccc([N+](=O)[O-])o3)o2)c(OC)c1`, 19.2%; as for `CCN(CC(=O)Nc1ccc(C(C)=O)cc1)CC(=O)Nc1cccc(OC)c1`, -11.2%.
For the compound `CC(=O)Nc1ccc(S(=O)(=O)NCC2CCC(C(=O)N3CCCCCC3)CC2)cc1` (centres unmarked), the “hERG current change (%, negative = inhibition) at 10uM” value came to 5.67%.
As to `CCC(C)[C@H](NC(=O)N1CC(=O)Nc2ccccc21)C(=O)NC(C)CCc1ccccc1` (some centres unmarked), the “hERG current change (%, negative = inhibition) at 10uM” value is listed as 1.83%.
`Cc1cccc(C(=O)NC(=S)Nc2ccc(S(=O)(=O)N(C)c3ccccc3)cc2)c1`: the “hERG current change (%, negative = inhibition) at 10uM” value was found to be 3.85%.
For the compound `CCCOc1cc(C)nc(-c2ccccc2O)n1`, the “hERG current change (%, negative = inhibition) at 10uM” value is reported as 14.9%.
For `CCOC(=O)C1C(=O)NC(C)C1c1ccccc1` (centres unmarked), the “hERG current change (%, negative = inhibition) at 10uM” value was -4.44%.
As to `O=S(=O)(c1ccc(S(=O)(=O)N2CCN3CCCC3C2)cc1)N1CCCC1` (centres unmarked), the “hERG current change (%, negative = inhibition) at 10uM” value is reported as -0.953%.
As to `Cc1cccc(C)c1NC(=O)CNC(=O)C1CCCN(C(=O)c2ccc(Cl)cc2)C1` (centres unmarked), the “hERG current change (%, negative = inhibition) at 10uM” value is 4.54%.
In the case of `O=C(O)c1ccc(S(=O)(=O)NCc2ccc3c(c2)OCO3)cc1`, the “hERG current change (%, negative = inhibition) at 10uM” value is 2.42%.
With `COc1cccc(SCc2noc(C(=O)NC(C)C)c2C(=O)NC(C)C)c1`, the “hERG current change (%, negative = inhibition) at 10uM” value is listed as 2.02%.
As for `COc1ccc(Nc2nnc(SCc3cn4c(C)cccc4n3)s2)cc1`, the figure is -52.2%.
As for `CC(C)c1nc2cc(C(=O)NC(C)c3cnn(C)c3)ccc2o1` (centres unmarked), the figure is 13.7%; as for `COCCCNc1nc2c(c(=O)[nH]c(=O)n2C)n1CCCc1ccccc1`, -2.2%.
On to `CCCCOC(=O)C1CCC[C@@H](C)N1.Cl` (some centres unmarked), for which the “hERG current change (%, negative = inhibition) at 10uM” value is given as -12.9%.
For `CCC(C)NC(=O)CSc1nc2cc(S(=O)(=O)N3CCOCC3)ccc2n1CC` (centres unmarked), the “hERG current change (%, negative = inhibition) at 10uM” value is 11%.
`O=C(O)CCn1c(=S)n(CCC(=O)O)c2ccccc21`: the “hERG current change (%, negative = inhibition) at 10uM” value is on record as -1.59%.
